# Measurements reported in the BET-seq Pho4 binding data (Le et al. 2018).
# The list shows a part of the results. Values were computed here from the reads of four pooled replicates and scatter widely.
# Molecular target: T1, Pho4 (S. cerevisiae) (UniProt P07270)
# T1 sequence: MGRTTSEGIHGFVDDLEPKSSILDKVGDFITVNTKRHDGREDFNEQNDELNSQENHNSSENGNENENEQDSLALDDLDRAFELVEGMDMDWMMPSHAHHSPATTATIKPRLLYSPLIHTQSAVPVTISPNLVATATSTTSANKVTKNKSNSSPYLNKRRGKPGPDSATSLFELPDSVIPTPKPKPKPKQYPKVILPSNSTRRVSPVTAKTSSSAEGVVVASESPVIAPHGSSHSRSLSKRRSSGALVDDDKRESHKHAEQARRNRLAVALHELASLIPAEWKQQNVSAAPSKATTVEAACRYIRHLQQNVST
# Test: relative binding free energy (BET-seq); higher = weaker binding
# Settings: reference: library average
row,Sequence,relative binding free energy [kcal/mol]
1,TTTGGCACGTGCATGG,-0.17
2,TGAGCCACGTGCTGTG,-0.13
3,TATTTCACGTGTATGA,0.26
4,ATACTCACGTGTTGAT,0.21
5,AGTTGCACGTGCGGTG,-0.02
6,TGTTACACGTGTGAAA,0.19
7,CGGTCCACGTGGGGCA,-0.08
8,TATATCACGTGAACGG,0.26
9,ATTAGCACGTGTGTTT,-0.05
10,AGTGTCACGTGATTAC,0.2
11,GTTGACACGTGTCTGA,0.11
12,CGTGCCACGTGTGTTT,-0.12
13,GTAATCACGTGATCGT,0.3
14,CGACGCACGTGGTAGG,-0.08
15,GAGTTCACGTGCTAGG,0.17
16,CGTGTCACGTGAGAGA,0.4
17,TGTATCACGTGAATGT,0.42
18,AGGTGCACGTGGTCGC,-0.09
19,GAGAGCACGTGTATAT,0.05
20,AAAGGCACGTGGCGTG,-0.28
21,TGCTACACGTGTATGG,0.17
22,CGGGGCACGTGTTCGA,-0.13
23,GCGGGCACGTGGCGTA,-0.13

row,Sequence,relative binding free energy [kcal/mol]
1,ATTGCCACGTGAGCGG,0.06
2,TATGGCACGTGCGTGT,-0.19
3,TTGCGCACGTGTGTGT,-0.07
4,TGGTGCACGTGTGTAT,0.07
5,ATGGGCACGTGTTTCT,-0.06
6,TCGCACACGTGGGGGT,-0.07
7,TGTTCCACGTGTAAGT,0.16
8,GGGTCCACGTGTAGTG,0.06
9,GGTCACACGTGGTTTT,0.06
10,AGATTCACGTGGTTGG,0.24
11,CATCGCACGTGAGGGG,0.05
12,ACCTTCACGTGGGAGG,0.22
13,TTTATCACGTGTTGTT,0.14
14,GCTAGCACGTGAGGGG,0.08
15,AGCGGCACGTGAGTTA,0.12
16,TTTTACACGTGGCATA,0.06
17,TTATTCACGTGCGTTA,0.27
18,ATATTCACGTGTTTGA,0.21
19,TCAGGCACGTGTTGTT,-0.23
20,TATTTCACGTGTATGG,0.28
21,TTGTGCACGTGGTTCA,-0.13
22,ATGTTCACGTGGAGTT,0.21
23,ATAGGCACGTGCTGTT,-0.13

row,Sequence,relative binding free energy [kcal/mol]
1,ATTTGCACGTGTGCAT,0.03
2,CGGCTCACGTGGGGGG,0.15
3,AGGCGCACGTGGGTCG,-0.31
4,GAGTTCACGTGAAGAG,0.32
5,TTATTCACGTGGTACA,0.14
6,TGGATCACGTGGTGGA,0.28
7,CTGGACACGTGTAGTA,0.11
8,TGTGGCACGTGTGCGT,-0.11
9,GTTAGCACGTGAGCGT,0.07
10,ATTGTCACGTGAAATT,0.34
11,CGTGGCACGTGCACGG,-0.16
12,TGTATCACGTGTTGGA,0.08
13,TAATTCACGTGTAGTT,0.27
14,TAATGCACGTGGCTAT,-0.08
15,GTTATCACGTGGTCCT,0.09
16,AGTTGCACGTGGACGT,0.03
17,TGGACCACGTGTGGTG,-0.07
18,TGGACCACGTGGTGGA,0.04
19,TTGCGCACGTGTTGAA,-0.05
20,GAATGCACGTGGTGTA,-0.19
21,TCTTTCACGTGTTAGA,0.22
22,AGGTACACGTGTAGTC,0.12
23,TATAGCACGTGTAGGC,-0.05

row,Sequence,relative binding free energy [kcal/mol]
1,AGTGACACGTGTGGAC,0.05
2,TTCAACACGTGTGGGA,0.06
3,TTATTCACGTGTGGCT,0.24
4,GTGTTCACGTGAAGTC,0.36
5,TGGTGCACGTGGTAGG,-0.12
6,TAGCGCACGTGTAGTA,-0.02
7,TATGCCACGTGGTGTG,-0.18
8,GTAACCACGTGTTTGG,0
9,TGAGTCACGTGGTTTA,0.1
10,AACTGCACGTGGGAGT,0.02
11,GGTTTCACGTGGAAGC,0.24
12,CTGCTCACGTGTTGGT,0.05
13,AAAGTCACGTGTGCTG,0.01
14,TGTTTCACGTGTTGAC,0.34
15,TTCCGCACGTGTGTTT,0.03
16,GTTCGCACGTGTAGGG,0.06
17,AAGGACACGTGTGGAA,0.16
18,TTGAGCACGTGTAGTG,-0.01
19,TGTTGCACGTGGGTCA,-0.26
20,ACAGGCACGTGGGTGA,-0.24
21,CGAGGCACGTGTGGAA,-0.02
22,TTTGGCACGTGGGACC,-0.19
23,TGGTACACGTGGTATA,0

row,Sequence,relative binding free energy [kcal/mol]
1,ATGCACACGTGATGGT,0.12
2,GTAACCACGTGTTTGT,-0.1
3,AGGACCACGTGTGGAT,0.06
4,AGTTACACGTGATGGC,0.16
5,TCGTTCACGTGGGGCA,0.24
6,CGAATCACGTGGGGTA,0.02
7,GTGGGCACGTGCAGTT,-0.03
8,GTTACCACGTGGGGTG,-0.2
9,GGTGGCACGTGGGCCT,-0.09
10,GGATTCACGTGCGGTG,0.33
11,GGGCGCACGTGAGGTG,0.22
12,TAAGGCACGTGATGAT,-0.02
13,TTTATCACGTGGTCGG,0.09
14,TTATGCACGTGGGGGA,-0.24
15,TGGAGCACGTGCTAGG,-0.2
16,TAAGGCACGTGAAGTT,0.16
17,TGAAACACGTGGAGGT,0.02
18,TCTGGCACGTGCAGGA,-0.05
19,ACCGGCACGTGAGGGG,0.08
20,ATGTACACGTGTGATA,0.24
21,TCGTTCACGTGGTGCG,0.22
22,TGGCTCACGTGGAGCG,0.11
23,TTCTTCACGTGTTTGT,0.23
